No constants are given. Whether binding was seen depends on the method and setting. In cells and extracts the contact can be indirect. Some binding calls cover weakened binding; strength is not graded here. For some of these results: Where a sequence is shown, tags or fusion partners need not be part of it.
T1: AT1R wildtype coupled to mTurquoise2, P30556
T1 chain: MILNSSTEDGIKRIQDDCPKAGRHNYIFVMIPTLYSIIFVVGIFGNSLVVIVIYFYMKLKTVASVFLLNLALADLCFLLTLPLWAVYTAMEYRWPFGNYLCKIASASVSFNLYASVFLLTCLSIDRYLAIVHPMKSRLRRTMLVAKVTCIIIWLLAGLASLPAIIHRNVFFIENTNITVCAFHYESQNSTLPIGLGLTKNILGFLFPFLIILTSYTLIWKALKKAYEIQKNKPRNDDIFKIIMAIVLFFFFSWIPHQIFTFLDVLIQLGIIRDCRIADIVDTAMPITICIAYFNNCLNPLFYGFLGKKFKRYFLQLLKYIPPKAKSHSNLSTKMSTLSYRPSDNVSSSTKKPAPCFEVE


Key:
[1] = target: AT1R wildtype coupled to mTurquoise2 (UniProt P30556); assay: FRET or BRET; FLIM-FRET: amplitude weighted average fluorescence lifetime of the mTurquoise2 donor (two-exponential fit), live HEK293T cells, plasma membrane regions
[2] = target: AT1R wildtype coupled to mTurquoise2 (UniProt P30556); assay: FRET or BRET; intensity-based FRET (FRET index), live HEK293T cells, 37 °C, confocal microscope; mTurquoise2 donor, YPet acceptor; plasma membrane regions only
[3] = target: EGFR C-terminally fused to mTurquoise2 (UniProt P00533); assay: FRET or BRET; FLIM-FRET: amplitude weighted average fluorescence lifetime of the mTurquoise2 donor (two-exponential fit), live HEK293T cells, plasma membrane regions
[4] = target: EGFR C-terminally fused to mTurquoise2 (UniProt P00533); assay: FRET or BRET; intensity-based FRET (FRET index), live HEK293T cells, 37 °C, confocal microscope; mTurquoise2 donor, YPet acceptor; plasma membrane regions only
[5] = target: C-terminal EGFP-labelled EGFR (epidermal growth factor receptor) (UniProt P00533); assay: co-IP; HA-AT1R and EGFR-EGFP expressed alone or together in HEK293T; lysis in 1% Triton X-100, 150 mmol/L NaCl, Tris pH 7.5; Dynabeads with anti-GFP (JL-8) or anti-HA antibody, overnight; Western blot with anti-HA
[6] = target: EGFR C-terminally fused to mTurquoise2 (UniProt P00533); assay: FRET or BRET; intensity-based FRET (FRET index), live HEK293T cells, 37 °C, confocal microscope; mTurquoise2 donor, YPet acceptor; plasma membrane regions only; remark: listed apart in the source
[7] = target: T1, AT1R wildtype coupled to mTurquoise2, …; assay: FRET or BRET; FLIM-FRET: amplitude weighted average fluorescence lifetime of the mTurquoise2 donor (two-exponential fit), live HEK293T cells, plasma membrane regions; conditions: remark: other sources report otherwise
[8] = target: T1, AT1R wildtype coupled to mTurquoise2, …; assay: FRET or BRET; intensity-based FRET (FRET index), live HEK293T cells, 37 °C, confocal microscope; mTurquoise2 donor, YPet acceptor; plasma membrane regions only; conditions: remark: other sources report otherwise

Molecule	binding [1]	binding [2]	binding [3]	other results
AT1R-YPet-MUT1 (S189A, I193A, L197A, I201A, L202A, L205A, F206A) (from UniProt P30556 1-359) (receptor)	binds weakly	binds weakly	–	–
AT1R wildtype C-terminally fused to YPet (from UniProt P30556 1-359) (receptor)	binds	binds	binds	binding [4]: binds
N-terminal HA-labelled AT1R (angiotensin II receptor type 1) (from UniProt P30556 1-359)	–	–	–	binding [5]: binds
AT1R-YPet-MUT2 (Y54A, F55A, F96A, Y99A, L100A) (from UniProt P30556 1-359) (receptor)	binds	binds	–	–
Mas1 receptor C-terminally fused to YPet (receptor, UniProt P04201 1-325) MDGSNVTSFVVEEPTNISTGRNASVGNAHRQIPIVHWVIMSISPVGFVENGILLWFLCFRMRRNPFTVYITHLSIADISLLFCIFILSIDYALDYELSSGHYYTIVTLSVTFLFGYNTGLYLLTAISVERCLSVLYPIWYRCHRPKYQSALVCALLWALSCLVTTMEYVMCIDREEESHSRNDCRAVIIFIAILSFLVFTPLMLVSSTILVVKIRKNTWASHSSKLYIVIMVTIIIFLIFAMPMRLLYLLYYEYWSTFGNLHHISLLFSTINSSANPFIYFFVGSSKKKRFKESLKVVLTRAFKDEMQPRRQKDNCNTVTVETVV	–	–	no binding	binding [6]: no binding
Mas1 receptor C-terminally fused to YPet, P04201 1-325 (receptor) MDGSNVTSFVVEEPTNISTGRNASVGNAHRQIPIVHWVIMSISPVGFVENGILLWFLCFRMRRNPFTVYITHLSIADISLLFCIFILSIDYALDYELSSGHYYTIVTLSVTFLFGYNTGLYLLTAISVERCLSVLYPIWYRCHRPKYQSALVCALLWALSCLVTTMEYVMCIDREEESHSRNDCRAVIIFIAILSFLVFTPLMLVSSTILVVKIRKNTWASHSSKLYIVIMVTIIIFLIFAMPMRLLYLLYYEYWSTFGNLHHISLLFSTINSSANPFIYFFVGSSKKKRFKESLKVVLTRAFKDEMQPRRQKDNCNTVTVETVV	–	–	–	binding [7]: no binding; binding [8]: no binding

From PMC11335197
